Several values for one entry are separate records, joined by “and”; a condition that tells them apart may be missing. Equal values may be shown once. Hit rate of the full screen: of about 220,000 compounds, about 16,000 (7.3%) were called active. Inconclusive means that the source gave no clear call. Such entries were picked first, then a sample of the others. Calls follow the shape of the dose curve; as a rule, active = well fitted inhibition curve with a large enough effect (not every such curve was filed as active); inconclusive = small, poorly fitted or top-dose-only effect, or another doubt; inactive = no such curve, though single readings can be large or run the other way. Potencies of inconclusive entries are left out as doubtful fits. The source holds several records for some structures; these can differ, active in one and inactive in another.
Each molecule was assayed against Aldehyde dehydrogenase 1A1 (Homo sapiens) (UniProt P00352) (assay: qHTS Assay for Inhibitors of Aldehyde Dehydrogenase 1 (ALDH1A1)). Details: Purified ALDH1A1, NADH fluorescence, propionaldehyde substrate; series mostly up to 75.3 µM.
UniProt P00352, sequence (P00352 whole entry, looked up): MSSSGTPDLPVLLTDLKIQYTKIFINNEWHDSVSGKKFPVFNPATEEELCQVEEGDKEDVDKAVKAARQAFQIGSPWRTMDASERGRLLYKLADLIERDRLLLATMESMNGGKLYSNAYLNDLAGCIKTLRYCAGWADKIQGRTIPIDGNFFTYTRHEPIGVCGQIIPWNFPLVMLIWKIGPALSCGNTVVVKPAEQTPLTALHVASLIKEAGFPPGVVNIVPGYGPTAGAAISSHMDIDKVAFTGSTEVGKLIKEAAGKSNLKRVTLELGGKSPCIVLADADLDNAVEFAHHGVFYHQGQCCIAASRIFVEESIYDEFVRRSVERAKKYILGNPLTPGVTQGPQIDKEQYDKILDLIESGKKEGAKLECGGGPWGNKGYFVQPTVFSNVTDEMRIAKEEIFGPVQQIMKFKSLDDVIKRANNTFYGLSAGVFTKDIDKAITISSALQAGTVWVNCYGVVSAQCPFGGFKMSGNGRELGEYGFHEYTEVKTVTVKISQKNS

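For activity, negative = inhibition in this document: plate controls were no enzyme wells and a reference inhibitor.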
Potency is read from the fitted curve at half-maximal effect; tags tell the direction and shape of the fitted curve.

SMILES | Potency | activity, negative = inhibition
Cc1ccc(S(=O)(=O)NCC(=O)OC(C)C(=O)Nc2ncc(Cl)cc2Cl)cc1 (stereo unspecified) | inactive | –
CCc1ccc(CCC(=O)Nc2ccccc2C(=O)O)o1 | inconclusive [inhibitor, single point] | –
[O-]/C(=C(\C(=S)NCCN1CCOCC1)[n+]1ccccc1)c1ccc(Cl)s1 | active: 10 µM | –
CCCC(=N)C1=C(O)CC(CC(C)SCC)CC1=O (stereo unspecified) | inactive | –
O=C(Nc1ccc(F)cc1)NC1CCN(Cc2c(F)cccc2Cl)CC1 | inconclusive [inhibitor, partial curve] | –
COc1ccc(C(=O)COC(=O)c2ccc(N(C)C)cc2)cc1 | inactive | –
O=C(COc1ccc2ccccc2c1)NNC(=O)Cc1ccccc1 | inactive | –
CC(C)(C)c1cc(NC(=O)NN2CCOCC2)nn1-c1c(Cl)cc(Cl)cc1Cl | inactive | –
CC(=O)CCc1ccc(OCC(O)CNC2CCCc3ccccc32)cc1 (stereo unspecified) | inconclusive [inhibitor, partial curve] | –
CC1=C(\C=C/C(C)=C/C=C\C(C)=C\C(=O)O)C(C)(C)CCC1 | active: 8.91 µM and active: 35.5 µM | –
COc1cccc2c1OCC(C(=O)O)C2 (stereo unspecified) | inactive | –
COC(=O)[C@@]1(Cc2ccc(F)cc2)[C@H]2c3cc(C(=O)N(C)C)n(CCc4ccc(O)c(O)c4)c3C[C@H]2CN1C(=O)c1ccccc1 | inactive | –
O=C1[C@@H]2C(c3cccnc3)=NO[C@@H]2C(=O)N1c1ccc(Br)cc1 | active: 7.94 µM | –
Cc1ccc(S(=O)(=O)/N=C2/NC(=O)/C(=C/c3ccncc3)S2)cc1 | inconclusive [inhibitor, single point] | –
CCOC(=O)c1cc(-c2cc3ccccc3o2)n[nH]1 | inactive | –
O=C(CN(Cc1ccco1)C(=O)c1cc(=O)[nH]c2ccccc12)Nc1ccccc1Br | inconclusive [inhibitor, partial curve] | –
CCOc1cccc2sc(=NC(=O)c3ccc(S(=O)(=O)N4CCOCC4)cc3)n(C)c12 | inconclusive [inhibitor, partial curve] | –
CCOC(=O)N1CCN(CC(O)c2ccc3c(c2)CCN3)CC1 (stereo unspecified) | active: 17.8 µM | –
CC(=O)N1CCc2ccc(S(=O)(=O)N3CCc4ccccc43)cc21 | inconclusive [inhibitor, single point] | –
Fc1ccc(Cn2ccc(-c3cnc(-c4ccccc4)s3)n2)cc1 | inconclusive [inhibitor, partial curve] | –
CC1=CC=CC2=N/C(=N\S(=O)(=O)c3ccc(F)cc3F)c3ccccc3CN12 | inconclusive [inhibitor, single point] | –
COC(=O)c1ccc(CN(c2ccc(C)cc2)S(=O)(=O)c2ccc3c(c2)OCCO3)o1 | inconclusive [inhibitor, full curve] | –
CCCCCNC1=CC(=O)CC(c2ccccc2)C1 (stereo unspecified) | inconclusive [inhibitor, partial curve] | –
Cc1cc(N2CCCCC2)n2ncc(-c3ccc(Cl)cc3)c2n1 | inconclusive [inhibitor, partial curve] | –

SMILES | Potency | activity, negative = inhibition
CCN(CC)S(=O)(=O)c1ccc(NC(=O)c2cc(-c3cccs3)nc3ccccc23)cc1 | inconclusive [inhibitor, single point] | –
Cc1ccc2[nH]c(=O)c(CN(CCCO)S(=O)(=O)c3cccc4nsnc34)cc2c1 | inconclusive [inhibitor, partial curve] | –
Cc1cc(/C=C(\C#N)C(=O)NC2CCCCCC2)c(C)[nH]1 | inconclusive [inhibitor, partial curve] | –
Cc1ccc(NC(=S)NC(=O)c2ccccc2)cc1NC(=S)NC(=O)c1ccccc1 | active: 3.55 µM | –
CCOC(=O)C(NS(=O)(=O)c1ccc(Br)cc1)C(C)C (stereo unspecified) | inconclusive [inhibitor, partial curve] | –
CC(C)c1ccc(CC(C)C2C3=C(CCCC3=O)OC3=C2C(=O)CCC3)cc1 (stereo unspecified) | inconclusive [inhibitor, single point] | –
O=c1[nH]c(=O)n(Cc2ccco2)c2c1C(C(F)(F)F)(C(F)(F)F)N=C(C1CCCCC1)N2 | inconclusive [inhibitor, partial curve] | –
CCOC(=O)c1cc2c(nc1NC(=S)Nc1ccccc1)CC(C)(CC)OC2 (stereo unspecified) | active: 12.6 µM | –
N#Cc1c2ccc(O)cc2n2ccccc12 | inconclusive [inhibitor, single point] | –
O=C(NCc1cccnc1)c1cccc(C(F)(F)F)c1 | inactive | –
CCSC1=N/C(=C\c2ccc(C(=O)O)cc2)C(=O)S1 | inactive | –
O=C1C2=C(S[C@@H]3O[C@H](CO)[C@@H](O)[C@H](O)[C@H]3O2)C(=O)c2ccccc21 | active: 1.41 µM | –
COC(=O)c1ccc(Oc2nc3c(c(=O)n(C)c(=O)n3C)n2CCC(C)C)cc1 | active: 0.0447 µM | –
O=C(Nc1ccc2c(c1)OCCO2)c1ccccn1 | inactive | –
Cc1ccc(NC(=O)C2CCCN2C(=O)NC2CCCCC2)cc1 (stereo unspecified) | inactive | –
CCOC(=O)C1C(=O)C=C(c2ccc(C)cc2)CC1c1cccc([N+](=O)[O-])c1 (stereo unspecified) | active: 2.51 µM | –
Cc1sc2ncnc(SCC(=O)NC(=O)c3cccn3C)c2c1C | inconclusive [inhibitor, single point] | –
Cc1ccccc1NC(=O)CN1C(=O)C2C3CC(C(Br)C3Br)C2C1=O (stereo unspecified) | active: 10 µM | –
O=C(Nc1cccc(S(=O)(=O)N2CCCCCC2)c1)c1cc(=O)c2ccccc2o1 | active: 11.2 µM | –
CCOc1ccccc1NC(=O)CSc1nnc2c(CC)c(C)nc(N)n12 | inconclusive [inhibitor, single point] | –
CC1(c2ccccc2Cl)NC(=O)N(CC(=O)NCCC2=CCCCC2)C1=O (stereo unspecified) | inconclusive [inhibitor, single point] | –
O=C(Nn1cnnc1)c1cc2c(s1)CCCCC2 | inconclusive [inhibitor, single point] | –
CC(=O)Nc1c(OC(C)=O)ccc2c(C)cc(=O)oc12 | inconclusive [inhibitor, partial curve] | –
CCCOC(=O)Nc1nc(-c2ccc(C)cc2)c(C)s1 | inconclusive [inhibitor, single point] | –

SMILES | Potency | activity, negative = inhibition
O=S1(=O)C=C(Sc2nc3cc(Cl)ccc3o2)c2ccccc21 | inconclusive [inhibitor, partial curve] | –
COc1ccc(OC)c(-n2c(-c3cc(-c4ccc(F)cc4)n[nH]3)n[nH]c2=S)c1 | inactive | –
CCNS(=O)(=O)c1ccc(NC(=O)c2ccc(Cn3cc([N+](=O)[O-])cn3)o2)cc1 | active: 18.9 µM | –
CCCCC(=O)Nc1ccc2oc(-c3ccncc3)nc2c1 | inconclusive [inhibitor, partial curve] | –
NS(=O)(=O)c1ccc(NC(=O)COC(=O)CCc2c[nH]c3ccccc23)cc1 | inactive | –
CN(C)c1nc(-c2cccnc2)nc2ccccc12 | inconclusive [inhibitor, single point] | –
CCOc1cc(C(=O)N/N=C\c2cn(CC)nc2C)cc(OCC)c1OCC | inconclusive [inhibitor, partial curve, poor fit] | –
CCOC(=O)Cn1nc(-c2ccc(Cl)cc2)cc1N | inconclusive [inhibitor, single point] | –
COc1ccccc1Nc1nc(-c2sc(NC(=O)c3ccc([N+](=O)[O-])cc3)nc2C)cs1 | active: 15.8 µM | –
CCC(=O)Nc1ccc(Cl)c(NC(=S)NC(C)=O)c1 | inconclusive [inhibitor, single point] | –
CCCN(CC(=O)Nc1ccccc1Br)CC(=O)Nc1ccc(F)c(F)c1F | inconclusive [inhibitor, single point] | –
O=C(C1CCN(c2nnnn2-c2ccccc2)CC1)N1CCN(c2ccccc2)CC1 | active: 10 µM | –
COc1cc(NC(=S)N2CCN(c3ccccn3)CC2)c(OC)cc1Cl | inconclusive [inhibitor, single point] | –
CC(C)(C)c1cc(CNC2CS(=O)(=O)C[C@@H]2O)cc(C(C)(C)C)c1O (stereo partly specified) | active: 12.6 µM | –
CN(C)S(=O)(=O)Nc1ccccc1C(N)=O | inconclusive [inhibitor, partial curve] | –
Cn1cnnc1SCC(=O)Nc1ccc(N2CCOCC2)cc1 | inactive | –
CC(C)[C@H](NS(=O)(=O)c1ccccc1)C(=O)OCC(=O)NC(=O)c1cccn1C | active: 12.6 µM | –
CC1=C(C#N)c2nc(N)c(C#N)c(C)c2/C1=C\c1ccc(-c2ccccc2C(=O)O)o1 | inconclusive [inhibitor, single point] | –
C[C@H]1[C@H](C)CC[C@]2(C(=O)O)CC[C@]3(C)C(=CC[C@H]4[C@]3(C)C[C@@H](O)C3[C@](C)(CO)[C@H](O)[C@@H](O)C[C@]34C)[C@H]12 (stereo partly specified) | – | inactive: -10.2% [at 13.5 µM]
S=C(Nc1ccc(Br)cc1Cl)NC1CCN(Cc2ccccc2)CC1 | active: 0.631 µM | –
COc1ccc(C2C(C(=O)N3CCOCC3)CCC(=O)N2c2cc(OC)c(OC)c(OC)c2)cc1 (stereo unspecified) | inactive | –
COc1ccccc1N1CCN(S(=O)(=O)c2c(C)ccc3nsnc23)CC1 | inconclusive [inhibitor, partial curve] | –
CC(C)N(CCNC(=O)c1cn(C)c2ccc(S(=O)(=O)N(C)C)cc2c1=O)Cc1ccccc1 | inconclusive [inhibitor, single point] | –

Source: PubChem BioAssay AID1030 (National Center for Advancing Translational Sciences (NCATS), 2008)
